In all, about 110,000 compounds were measured (“z-score”: median about -0.1, highest 2% from about 2 on). Some of the results follow.
What follows are compounds tested against Metabotropic glutamate receptor 8 (Rattus norvegicus) (UniProt P70579) (assay: mGluR8 Gi/Go-coupled signaling modulation – cell-based, rat, thallium flux, HTS, primary screen (AID 488969)). Conditions: HEK293 rat mGluR8, GIRK (G protein-gated inwardly rectifying potassium channel) thallium flux, FluoZin2; at 10 µM; stronger effect = higher value; submaximal glutamate (EC20) added with thallium.
Chain of UniProt P70579 (P70579 whole entry, looked up): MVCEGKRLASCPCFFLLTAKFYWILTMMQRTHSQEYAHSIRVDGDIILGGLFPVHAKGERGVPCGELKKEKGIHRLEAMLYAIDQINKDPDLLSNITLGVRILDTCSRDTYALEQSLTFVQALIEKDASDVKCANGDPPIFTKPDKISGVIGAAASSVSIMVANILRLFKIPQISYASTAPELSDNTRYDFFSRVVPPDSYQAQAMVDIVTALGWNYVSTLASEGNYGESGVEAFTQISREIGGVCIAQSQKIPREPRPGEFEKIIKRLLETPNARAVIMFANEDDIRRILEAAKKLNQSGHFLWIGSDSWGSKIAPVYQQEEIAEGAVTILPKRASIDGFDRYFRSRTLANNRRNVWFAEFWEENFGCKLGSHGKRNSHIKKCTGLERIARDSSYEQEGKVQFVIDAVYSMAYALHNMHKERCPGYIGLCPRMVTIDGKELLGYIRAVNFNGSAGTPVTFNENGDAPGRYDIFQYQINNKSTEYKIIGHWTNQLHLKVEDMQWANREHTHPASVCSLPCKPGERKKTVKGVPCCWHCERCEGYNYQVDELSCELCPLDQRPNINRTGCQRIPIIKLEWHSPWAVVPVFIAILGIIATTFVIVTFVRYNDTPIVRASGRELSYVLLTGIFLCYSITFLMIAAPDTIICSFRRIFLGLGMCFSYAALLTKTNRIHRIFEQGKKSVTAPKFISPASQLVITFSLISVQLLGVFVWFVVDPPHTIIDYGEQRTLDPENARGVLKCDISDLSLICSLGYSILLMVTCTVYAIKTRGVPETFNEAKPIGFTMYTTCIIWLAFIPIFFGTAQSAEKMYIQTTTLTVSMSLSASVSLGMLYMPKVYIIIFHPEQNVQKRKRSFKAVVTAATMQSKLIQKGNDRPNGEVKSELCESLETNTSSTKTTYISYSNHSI

| Compound | z-score |
| --- | --- |
| COCCn1c(-c2ccccc2)nc2c(c(=O)c3ccccc3n2C)c1=O | -0.576 |
| CC(C)Nc1ncnc2c1nnn2Cc1ccccc1 | -0.084 |
| O=C(NCc1cccs1)c1cnc2ccccn2c1=O | -0.178 |
| COc1ccc(/C=C2\SC(=O)N(CCNC(=O)C3CC(=O)N(c4ccccc4)C3)C2=O)cc1 (stereo not given) | -0.349 |
| CCn1nc(NC(=O)c2ccccn2)c2cc3cccc(C)c3nc21 | 0.101 |
| OC(COCc1ccc(Cl)cc1)CN1CCN(c2ccccn2)CC1 (stereo not given) | -0.147 |
| COc1ccccc1OCC(=O)N/N=C1\CCc2ccccc21 | -0.32 |
| O=S1(=O)C=C(SCCN2CCCCC2)c2ccccc21 | 0.71 |
| O=C(Nc1cnn(Cc2ccc(Cl)cc2)c1)C1CCCC1 | -0.0534 |
| CCCn1c(=O)c2c(C(=O)OCC)cc(-c3ccco3)nc2n(CCC)c1=O | -0.597 |
| CCN(c1ccc(NC(=O)COC(=O)CCC(=O)c2ccc(F)cc2)cc1)C(C)C | -0.471 |
| COc1ccc(NC(=O)Cn2cc(C(=O)c3ccco3)c3ccccc32)cc1 | -0.14 |
| CCOCCCn1c(=N)c(C(=O)NCc2ccc3c(c2)OCO3)cc2c(=O)n3ccccc3nc21 | 0.357 |
| O=C1CCc2cc(S(=O)(=O)N3CCCC3C(=O)N3CCN(c4ccccc4F)CC3)ccc2N1 (stereo not given) | -0.194 |
| C=C(C)c1nc2cc(OC)c(OC)cc2c(=O)o1 | -1.11 |
| COc1ccc(-c2[nH]ncc2/C=C(\C#N)C(=O)NC2CC2)cc1 | 0.216 |
| Cc1ccc(S(=O)(=O)N2CCC(C(=O)NCCCOC(C)C)CC2)cc1 | 0.131 |
| Cc1c(N(C)C)nc2ccccc2c1N | 2.03 |
| Cc1ccc(C)c(NC(=O)CN(C)C(=O)[C@@H](NC(=O)c2ccc(C(C)(C)C)cc2)C(C)C)c1 | -0.175 |
| CN(C)c1nc(OCCOC(=O)c2ccccc2)nc(N(C)C)n1 | 1.45 |
| CCCCCOC(=O)Nc1ccc(S(=O)(=O)Nc2cccc([N+](=O)[O-])c2)cc1 | -0.097 |
| CC(=O)N1CCc2cc(S(=O)(=O)CCC(=O)NCc3ccc4c(c3)OCO4)ccc21 | -0.0913 |
| CC(Sc1nc(-c2ccccc2)cc(C(F)(F)F)n1)C(=O)N1CCCCC1 (stereo not given) | -0.227 |
| C=CCC(NCc1ccccc1)c1ccc(C)o1 (stereo not given) | 0.143 |
| CC1CCCN(CC(=O)Nc2ccc(S(=O)(=O)N3CCCCC3)cc2)C1 (stereo not given) | 1.13 |
| CCOC(=O)c1c(C)[nH]c(C(=O)COC(=O)CSCC(=O)N(CC)CC)c1C | -0.411 |
| COc1cc(NC(=O)C2CCCO2)c(OC)cc1Cl (stereo not given) | -0.106 |
| N#CCCSc1nc(N2CCOCC2)c2c(c1C#N)CCCC2 | -1.56 |
| CC(=O)N1CCC(O)(c2cccc(C(F)(F)F)c2)CC1 | 0.105 |
| CC(C)CC(NC(=O)c1ccco1)C(=O)Nc1ccc2c(c1)OCCO2 (stereo not given) | -0.411 |

Source: PubChem BioAssay AID488969 (Vanderbilt High Throughput Screening Facility, 2010)
